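Method: 48-hour compound exposure of cells in 96-well plates, five concentrations, linear interpolation of endpoints. GI50 is the concentration that inhibits growth by half.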 Activity calls are given as the source filed them. No stated cut-off is given here; in the data, active = GI50 up to about 1.1 µM and inactive = higher.
tested on: NCI-H322M; assay: growth of human tumour cells (NCI), 48 h

Row | Structure (SMILES) | GI50
1 | COc1ccc(C2ON(c3cccc(C)n3)CC=C2C)cc1 (centres undefined) | inactive: > 100 µM
2 | ClC1c2ccccc2C2(c3ccccc3)OOC1(c1ccccc1)O2 (centres undefined) | inactive: 5.18 µM
3 | COc1ccc(/C=C/C(=O)CC(=O)/C=C/c2ccc(OC)cc2)cc1 | inactive: > 100 µM
4 | CC1(C)NC2C(=O)c3c([nH]c4ccccc34)[C@]3(C)CCC1CC23 (some centres undefined) | inactive: > 100 µM
5 | COC(=O)C12C3C4C1C1C2C3C41I (centres undefined) | inactive: > 100 µM
6 | O=C(NN1C(=O)C(Cl)C1c1c(O)ccc2ccccc12)c1ccccc1O (centres undefined) | inactive: > 100 µM
7 | COc1ccc(N2C(=O)CC(=O)N(NC(=O)C(C)Oc3ccccc3C)C2=S)cc1 (centres undefined) | inactive: > 100 µM
8 | C[C@H]1CC[C@H]([C@@H](C)[C@H]2[C@@H](O)C[C@H]3[C@@H]4CC[C@H]5C[C@@H](O)CC[C@]5(C)[C@H]4CC[C@]23C)NC1 | inactive: 19.6 µM
9 | COc1ccc(/C=C/c2cc(OC)c(OC)c(OC)c2)cc1OC | inactive: 37.8 µM
10 | CCOC(=O)c1nc2ccc(C(F)(F)F)cc2nc1NCc1ccc(OC)c(OC)c1 | inactive: 52.8 µM
11 | S=c1sc2ccccc2n1CN1CCN(Cc2ccccc2)CC1 | inactive: > 100 µM
12 | Cc1c(C(=O)Nc2ccc(Cl)cc2)nc(N)nc1-c1cccc(Cl)c1 | inactive: > 100 µM
13 | N=c1nc2n(cc1F)[C@@H]1O[C@H](CO)[C@@H](O)[C@@H]1O2 | inactive: > 100 µM
14 | Oc1c2c(nc3cc4c(cc13)OCO4)-c1ccccc1CC2 | inactive: > 100 µM
15 | Cc1cc(C)c(O)c(Cc2cccc(Cc3cc(C)cc(C)c3O)c2O)c1 | inactive: > 100 µM
16 | N/C(=N/c1ccc(O)cc1)S(=O)O | inactive: > 100 µM
17 | N#CCc1nc(O)c2ccccc2n1 | inactive: > 100 µM
18 | Nc1nc(Cl)c(/N=N/c2ccc(Cl)cc2)c(NCC2(CO)CCC(CCc3ccccc3)C2)n1 (centres undefined) | inactive: 16.7 µM
19 | CC(=O)c1ccc(NC(=O)/C(=N\NC(N)=O)C(C#N)CC(C)(C)C=O)cc1 (centres undefined) | inactive: > 100 µM
20 | CC(C)C(=O)Nc1nc2c(ncn2C2OC(CO)C(O)C2O)c(=O)[nH]1 (centres undefined) | inactive: > 100 µM
21 | O=[N+]([O-])c1cc(C2(N3CCCCC3)CCCCC2)sc1Br | inactive: 12.7 µM
22 | O=C(CNc1ccccn1)Nn1cnc2ccc(S(=O)(=O)Nc3ccccn3)cc2c1=O | inactive: > 100 µM
23 | Nc1nc(Cl)cc(Nc2cc(Cl)cc(Cl)c2)n1 | inactive: 18.4 µM
24 | CC1=C(N2CC2)C(=O)C(CO)=C(N2CC2)C1=O | active: 0.13 µM

Row | Structure (SMILES) | GI50
25 | CCC1=C(CC)C1(C#N)[N+](=O)[O-] | inactive: > 100 µM
26 | CC1(C)CC(=O)C(CC2C(=O)c3ccccc3C2=O)C(=O)C1 | inactive: > 100 µM
27 | Cc1csc2[n+]1C(=O)/C(=C\c1ccc([N+](=O)[O-])cc1)S2 | inactive: 25.5 µM
28 | CCC/C=C/C=C/C(=O)OC1C(C)C2(O)C3C=C(C)C(=O)C3CC(COC(C)=O)=CC2C2C(C)(C)C12OC(=O)C(C)C (centres undefined) | inactive: 27 µM
29 | CC1=N/C(=C\c2cccc3ccccc23)C(=O)O1 | inactive: > 100 µM
30 | CCCn1c(SCCSc2c3ccccc3c(-c3nc(F)nc(F)n3)n2CCC)c2ccccc2c1-c1nc(F)nc(F)n1 | inactive: > 100 µM
31 | Cc1ccccc1Nc1nc2c(s1)C(=O)c1ccccc1C2=O | inactive: 15 µM
32 | COC(=O)C1=C(C)N2[C@H](C(=O)O)CO[C@@]2(C)[C@H](C(=O)OC)[C@H]1c1cccc([N+](=O)[O-])c1 | inactive: > 100 µM
33 | COc1ccc(NC(=O)C2C(=O)N(c3ccc(OC)cc3)C(=O)/C2=N\N)cc1 (centres undefined) | inactive: > 100 µM
34 | Cc1cccc(C)c1NC(=O)C(Cc1c[nH]c2ccccc12)NC(=O)OCc1ccccc1 (centres undefined) | inactive: 16.7 µM
35 | COc1cc(-c2cccs2)sc1-c1cccs1 | inactive: 35.6 µM
36 | COc1ccc(C(=O)NC2=C(Cl)C(=O)c3ccccc3C2=O)cc1 | inactive: 6.43 µM
37 | [C-]#[N+]C1(C(=O)OCC)CC1 | inactive: > 100 µM
38 | N=C(N)N/N=C/c1c(-c2ccccc2)nc2ccn3c(/C=N/N=C(N)N)c(-c4ccccc4)nc3n12 | inactive: 22 µM
39 | NC(C(=O)O)C(O)c1c[nH]cn1 (centres undefined) | inactive: > 100 µM
40 | CC(=O)/N=C1/N(/C=C2\C(=O)Oc3ccccc3C2=O)C(=O)/C(=C/c2ccc(NC(C)=O)cc2)N1C | inactive: > 100 µM
41 | CN(C)CCC(C(=O)C(C)(C)C)c1ccccn1 (centres undefined) | inactive: > 100 µM
42 | CCOC(=O)C1=NNC(C(=O)c2ccccc2)C1c1ccccc1 (centres undefined) | inactive: 18 µM
43 | COc1cc(C(C)O)c[n+](CCC2CNc3ccccc32)c1 (centres undefined) | inactive: > 100 µM
44 | Cn1nc(-c2ccccc2NC(=O)C(F)(F)F)c(=O)n(C)c1=S | inactive: > 100 µM
45 | COc1cc2c[n+](C)c3c4cc(OC)c(OC)cc4ccc3c2cc1OC | inactive: > 100 µM
46 | CCN1CCN=c2c3cc(OC)ccc3n3cnc4ccc1c2c43 | active: 0.207 µM
47 | Cc1oncc1/N=C1\C=C(O)C(=O)c2ccccc21 | inactive: 16.7 µM
48 | COc1ccc(OCC(C)(C)O)cc1 | inactive: > 100 µM

Row | Structure (SMILES) | GI50
49 | O=C(CCc1nnc2s/c(=C\c3ccccc3)c(=O)n12)Nc1cc(Cl)ccc1Cl | inactive: > 100 µM
50 | O=c1[nH]c2ccccc2c(=O)n1/N=C\c1ccccc1O | inactive: > 100 µM
51 | C/C(=C/C(=O)N(C)c1ccccc1Cl)O[Si](C(C)C)(C(C)C)C(C)C | inactive: 23.8 µM
52 | Cc1ccc(S(=O)(=O)NC(=O)Nc2ccc(S(N)(=O)=O)cc2S(N)(=O)=O)cc1 | inactive: > 100 µM
53 | COc1ccc(-c2csc3c2[N+]2(C)C=CC=C2C3N2CCCC2)cc1 (centres undefined) | inactive: 55.2 µM
54 | C/C(=N\Nc1nc2ccccc2s1)c1cccnn1 | inactive: 2.67 µM
55 | CC(=O)[C@@]1(O)CC[C@H]2[C@@H]3C[C@H](C)C4=CC(=O)C=C[C@]4(C)[C@@]3(F)[C@@H](O)C[C@@]21C [FLUOROMETHOLONE] | inactive: > 100 µM
56 | Nc1ncnn2c(C3OC(CO)C(O)C3O)ccc12 (centres undefined) | active: 0.152 µM
57 | COCC1OC(N2C(=O)NC(=O)[C@@H]3C=C4CCCCC4=C[C@@H]32)C(OC)C1OC (some centres undefined) | inactive: > 100 µM
58 | O=[N+]([O-])c1ccc(SN=S=NSc2cccc(SN=S=NSc3ccc([N+](=O)[O-])cc3)c2)cc1 | inactive: 94.4 µM
59 | C[C@]12C(=O)C=CCC1=CC[C@@H]1[C@@H]2[C@H]2CC3(O)C(=O)O[C@@]4(C)[C@H]5C[C@@]6(C)[C@@H]7[C@@]2(O)[C@]1(OC[C@H]6C(=O)O5)O[C@]734 (some centres undefined) | inactive: > 100 µM
60 | CC(=O)/C=C/c1cccc(N=S)c1 | inactive: > 100 µM
61 | CN1CC[C@]2(C)c3c(O)cccc3CC3CCCC1C32C (some centres undefined) | inactive: > 100 µM
62 | NC1CC(Cl)c2c(Cl)sc(Cl)c21 (centres undefined) | inactive: > 100 µM
63 | CC(=O)CCN1CC2CN=NC2(C#N)C1 (centres undefined) | inactive: > 100 µM
64 | CSc1nc2nc(C(O)C(O)C(O)CO)cnc2c(=O)[nH]1 (centres undefined) | inactive: > 100 µM
65 | Cc1nc2ccccc2c(=O)n1/N=C(\N=N\c1ccccc1)c1ccccc1Cl | inactive: > 100 µM
66 | O=S(=O)(c1cc(Cl)ccc1Cl)N1CCN(c2cccc(Cl)c2)CC1 | inactive: > 100 µM
67 | O=C1c2ccccc2C(=O)c2c1sc1nc3ccccc3n21 | inactive: 1.89 µM
68 | COc1cc2c(cc1OCCCN1CCN(C)CC1)N=C[C@@H]1CCCN1C2=O | inactive: 3.92 µM
69 | CCOC(=O)C(=O)Nc1cccc(C)c1C | inactive: > 100 µM
70 | CCOC(=O)/C(C(=O)Nc1cccc(C(F)(F)F)c1)=C(/N)N1CCOCC1 | inactive: > 100 µM
71 | Cc1cc2cc3c(C)cc(=O)oc3c(C)c2o1 [TRIOXSALEN] | inactive: > 100 µM
72 | O=C(O)C[C@@H](Cl)[C@H](NC(=O)OCc1ccccc1)C(=O)O | inactive: > 100 µM

Row | Structure (SMILES) | GI50
73 | Cc1cc(Cl)nc(NC(=O)CSc2ccc(Cl)cc2)n1 | inactive: > 100 µM
74 | CC(Br)C(=O)c1ccc2cc(Br)c3ccccc3c2c1 (centres undefined) | inactive: 20.2 µM
75 | CCC(C)(C)n1c(C)nc2c1C(=O)c1ccccc1C2=O | inactive: 70.8 µM
76 | Cc1cc(N(CCOS(C)(=O)=O)CCOS(C)(=O)=O)ccc1/C=N/c1ccc(-c2csc(-c3ccccc3)n2)c(Cl)c1 | inactive: 11.3 µM
77 | COC(=O)/C=C1\C(=O)N(C(C)=O)c2ccc(Br)cc21 | inactive: 18.5 µM
78 | Nc1nc(N)c2cc(S(=O)(=O)c3ccc4ccccc4c3)ccc2n1 | inactive: 23.8 µM
79 | O=c1c(F)cn2c(=O)n1CCCCCCCn1c(=O)c(F)cn(c1=O)CCCCCCC2 | inactive: > 100 µM
80 | CC(N/N=C(\S)N1CCCCCC1)c1cccnn1 (centres undefined) | active: 0.394 µM
81 | C=C1CCC23CC(CC[C@@H]2[C@@]12C[C@@H](c1ccoc1)OC2=O)OC3=O (some centres undefined) | inactive: > 100 µM
82 | Nc1ccc(N(S(=O)(=O)c2ccccc2)S(=O)(=O)c2ccccc2)c(Cl)c1 | inactive: > 100 µM
83 | C[n+]1ccc(-c2cc[n+](C)cc2)cc1 [PARAQUAT DICHLORIDE] | inactive: > 24.9 µM
84 | O=C(CCCN1CCC(Nc2ccc(F)cc2)(c2nnnn2C2CCCCC2)CC1)c1ccc(F)cc1 | inactive: 5.7 µM
85 | CCCCN/N=N/c1cn(C2OC(CO)C(O)C2O)c(=O)[nH]c1=O (centres undefined) | inactive: > 100 µM
86 | COc1ccc2c(c1)OCC1Cc3ccccc3OC21 (centres undefined) | inactive: > 100 µM
87 | COc1cc(/C=C2\CCC(CN(C)C)C2=O)ccc1OC(=O)c1ccccc1 (centres undefined) | inactive: 17.8 µM
88 | CCCCCCN(C(=O)Oc1ccccc1)C(C#N)c1ccccc1 (centres undefined) | inactive: > 100 µM
89 | COc1cc([C@@H]2c3cc4c(cc3[C@@H](NC(=O)c3ccc(N)cc3)C3COC(=O)[C@@H]32)OCO4)cc(OC)c1O (some centres undefined) | inactive: 10.4 µM
90 | N#CCc1nc(-c2ccccc2)n[nH]1 | inactive: > 100 µM
91 | CC(=O)n1c2c(c(=O)n1-c1ccccc1)[S+]([O-])CCC2 (centres undefined) | inactive: > 65.3 µM
92 | CN(C)CCCNc1ccc2nnn3c4ccc(OC(=O)c5ccc([N+](=O)[O-])cc5)cc4c(=O)c1c23 | inactive: 5.32 µM
93 | Cc1ccc(/C=C2\NC(=S)NC2=O)cc1 | inactive: > 100 µM
94 | Cc1cc(C)nc(NS(=O)(=O)c2ccc(Nc3c4ccccc4nc4c(C(=O)NCCCN(CCO)CCO)cccc34)cc2)n1 | inactive: 17.1 µM
